Our source for the cell count values is the supplement of paper PMC4604168 (melanoma cell lines).

The list shows a part of the results. Many values rest on one well or one pass, so single values are uncertain.
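Note: cell number obtained by counting DAPI-stained nuclei in high-throughput microscope images with image analysis software, screen run in 1,536-well plates.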

The experiment deals with COLO792. Put plainly: cell count relative to DMSO control; melanoma cells; higher = more viable cells. The following applies: library dose: low library concentration; 72 h.
The compound `Cc1cc(Nc2cc(N3CCN(C)CC3)nc(Sc3ccc(NC(=O)C4CC4)cc3)n2)n[nH]1` [Tozasertib] + CC(C)CCN1c2nc(Nc3cc(F)c(O)c(F)c3)ncc2N(C)C(=O)C1C [BID1870] (first compound 0.006 µM, partner dose 0.2 µM) registered a cell count of 81.1%. The figure for `Cc1cc(Nc2cc(N3CCN(C)CC3)nc(Sc3ccc(NC(=O)C4CC4)cc3)n2)n[nH]1` [Tozasertib] + Cc1cc([N+](=O)[O-])ccc1NS(=O)(=O)c1cc(Cl)ccc1Cl [FH535] (first compound 0.006 µM, partner dose 1 µM) is 98%. With `CC[C@]1(O)C[C@H]2CN(CCc3c([nH]c4ccccc34)[C@@](C(=O)OC)(c3cc4c(cc3OC)N(C=O)[C@H]3[C@@](O)(C(=O)OC)[C@H](OC(C)=O)[C@]5(CC)C=CCN6CC[C@]43[C@@H]65)C2)C1` [vincristine] + c1cc(-c2cnn3cc(-c4ccc(OCCN5CCCCC5)cc4)cnc23)ccn1 [Dorsomorphin] (first compound 0.0001 µM, partner dose 0.4 µM), the cell count is 98.7%. Next, `N#CC[C@H](C1CCCC1)n1cc(-c2ncnc3[nH]ccc23)cn1` [ruxolitinib] + Oc1nc(-c2ccc(C(F)(F)F)cc2)nc2c1CSCC2 [XAV939] (first compound 1 µM, partner dose 2 µM): 91.3%. The figure for `Cc1cc(Nc2cc(N3CCN(C)CC3)nc(Sc3ccc(NC(=O)C4CC4)cc3)n2)n[nH]1` [Tozasertib] + Cn1cncc1[C@@](N)(c1ccc(Cl)cc1)c1ccc2c(c1)c(-c1cccc(Cl)c1)cc(=O)n2C [tipifarnib] (first compound 0.006 µM, partner dose 0.01 µM) is 111%; for `CC[C@]1(O)C[C@H]2CN(CCc3c([nH]c4ccccc34)[C@@](C(=O)OC)(c3cc4c(cc3OC)N(C=O)[C@H]3[C@@](O)(C(=O)OC)[C@H](OC(C)=O)[C@]5(CC)C=CCN6CC[C@]43[C@@H]65)C2)C1` [vincristine] + NC(=O)Nc1cc(-c2cccc(F)c2)sc1C(=O)N[C@H]1CCCNC1 [AZD7762] (first compound 0.0001 µM, partner dose 0.02 µM) it is 86.1%. Next, `Cc1cc(Nc2cc(N3CCN(C)CC3)nc(Sc3ccc(NC(=O)C4CC4)cc3)n2)n[nH]1` [Tozasertib] + O=C1NC(=O)/C(=C/c2ccc(-c3ccc(F)cc3O)o2)S1 [AS252424] (first compound 0.006 µM, partner dose 1 µM): 91.8%. As to `CC[C@]1(O)C[C@H]2CN(CCc3c([nH]c4ccccc34)[C@@](C(=O)OC)(c3cc4c(cc3OC)N(C=O)[C@H]3[C@@](O)(C(=O)OC)[C@H](OC(C)=O)[C@]5(CC)C=CCN6CC[C@]43[C@@H]65)C2)C1` [vincristine] + Cc1cc(N2CCOCC2)cc2[nH]c(-c3c(NC[C@@H](O)c4cccc(Cl)c4)cc[nH]c3=O)nc12 [BMS536924] (first compound 0.0001 µM, partner dose 0.2 µM), the cell count came to 95.6%. Next, `CC[C@]1(O)C[C@H]2CN(CCc3c([nH]c4ccccc34)[C@@](C(=O)OC)(c3cc4c(cc3OC)N(C=O)[C@H]3[C@@](O)(C(=O)OC)[C@H](OC(C)=O)[C@]5(CC)C=CCN6CC[C@]43[C@@H]65)C2)C1` [vincristine] + NCC(=O)Nc1ccc(-n2nc(C(F)(F)F)cc2-c2ccc3c(ccc4ccccc43)c2)cc1 [OSU03012] (first compound 0.0001 µM, partner dose 1 µM): 89.9%; `Cc1cc(Nc2cc(N3CCN(C)CC3)nc(Sc3ccc(NC(=O)C4CC4)cc3)n2)n[nH]1` [Tozasertib] + Oc1nc(-c2ccc(C(F)(F)F)cc2)nc2c1CSCC2 [XAV939] (first compound 0.006 µM, partner dose 2 µM): 81.3%; `CC[C@]1(O)C[C@H]2CN(CCc3c([nH]c4ccccc34)[C@@](C(=O)OC)(c3cc4c(cc3OC)N(C=O)[C@H]3[C@@](O)(C(=O)OC)[C@H](OC(C)=O)[C@]5(CC)C=CCN6CC[C@]43[C@@H]65)C2)C1` [vincristine] + COC(=O)c1sccc1S(=O)(=O)Nc1ccc(Nc2ccccc2)cc1OC [GSK0660] (first compound 0.0001 µM, partner dose 1 µM): 101%. `Cc1cc(Nc2cc(N3CCN(C)CC3)nc(Sc3ccc(NC(=O)C4CC4)cc3)n2)n[nH]1` [Tozasertib] + N#Cc1c(O)c2c(-c3ccc(-c4ccccc4O)cc3)csc2[nH]c1=O [A769662] (first compound 0.006 µM, partner dose 2 µM) yielded a cell count of 98.9%.
